Experimental data published in patent US12145987B2, “Method for depleting cytotoxic T cells using an anti-LAG-3 antibody composition” (Daiichi Sankyo Company, Limited, priority 2017, dated 2024).

B1: hLA212_H4/L2: defucosylated humanized antibody; heavy chain positions 20 to 470 of SEQ ID No: 30, light chain positions 21 to 234 of SEQ ID No: 34 (antibody)
heavy: EVQLVESGGGLVQPGGSLRLSCAASGFTYRSYVMAWVRQAPGKGLEWVASISTGGGNTYYRDSVKGRFTISRDNAKNTLYLQMDSLRAEDTAVYYCAEDMSNSGYGLFDYWGQGTLVTVSSASTKGPSVFPLAPSSKSTSGGTAALGCLVKDYFPEPVTVSWNSGALTSGVHTFPAVLQSSGLYSLSSVVTVPSSSLGTQTYICNVNHKPSNTKVDKRV[left out - human IgG1 Fc]
light: DIQMTQSPSSLSASVGDRVTITCKAGQNVDNNIAWYQQKPGQSPKLLIYYASNRNTGVPSRFSGSGYGTDFTLTISSLQPEDFATYYCQRISNSPYTFGQGTKVEIKRTVAAPSVFIFPPSDEQLKSGTASVVCLLNNFYPREAKVQWKVDNALQSGNSQESVTEQDSKDSTYSLSSTLTLSKADYEKHKVYACEVTHQGLSSPVTKSFNRGEC
B2: hLA212_H3/L2: humanized antibody; heavy chain positions 20 to 470 of SEQ ID No: 30, light chain positions 21 to 234 of SEQ ID No: 34 (antibody)
heavy: B1 heavy
light: B1 light

Tests used:
[1] = test system: EAE (experimental autoimmune encephalomyelitis) model; assay: EAE (experimental autoimmune encephalomyelitis) model; assay type: in vivo, human LAG-3/human FcγRIIIA double transgenic mice; details: 30 mg/kg intravenous on Days 0 and 7
[2] = test system: granzyme positive CD8 T cells; assay: Granzyme positive CD8 T cell number after CD3/CD28 stimulation of human PBMCs; assay type: cell-based; details: data not shown
Experimental: (§1) PBMCs were separated from human peripheral blood by Ficoll centrifugation and added to a 96-well U-bottom microplate in an amount of 4×10^5 cells/well. Human IL-2 (PeproTech, Inc., final concentration: 100 ng/mL) and Dynabeads Human T-Activator CD3/CD28 (Life Technologies Corp., 4×105 beads/well) were added thereto, and T cells were activated by culture for 4 days. The obtained cells were recovered, suspended in a FACS buffer (PBS, 0.1% BSA, and 0.1% sodium azide), and then reacted with Human BD Fc Block (Becton, Dickinson and Company) at room temperature for 10 minutes. Subsequently, the cell surface was stained by reaction at 4° C. for 30 minutes with fluorescently labeled antibodies diluted with a FACS buffer containing a LIVE/DEAD Fixable Dead Cell Stain Kit-near-IR fluorescent reactive dye (manufactured by Invitrogen Corp.), followed by washing with a FACS buffer. […] The data was analyzed using FlowJo (manufactured by Tree Star Inc). After removal of the LIVE/DEAD Fixable Dead Cell Stain Kit-near-IR fluorescent reactive dye-positive dead cells by gating, only the living cells were analyzed by further gating CD3 positive and CD8 positive CD8 T cells. […]

[3] = test system: perforin positive CD8 T cells; assay: Perforin positive CD8 T cell number after CD3/CD28 stimulation of human PBMCs for 4 days, flow cytometry; assay type: cell-based; details: hLA212_H4/L2 10 μg/mL, tacrolimus 10 nM, PBMCs of two donors
Experimental: as §1

LAG-3 of rodents = assay: Cross-reactivity with rodent LAG-3; assay type: binding
[4] = test system: 293T-lacZ cells not expressing human LAG-3; assay: In vitro ADCC assay on target cells without human LAG-3 (specificity); assay type: cell-based; details: target 293T-lacZ cells without human LAG-3 gene, effector human PBMCs
Experimental: The ADCC activity of the purified rat anti-human LAG-3 antibodies rLA204, rLA212, rLA225, rLA869, and rLA1264 was investigated by the following method. To a 96-well U-bottom microplate containing 50 μL/well of the antibody solution, was added 50 μL/well of the target cells (which will be hereinafter referred to as 293T-lacZ/hLAG-3 cells) of Example 1)-5-1, followed by standing at 4° C. for 30 minutes. Then, 75 μL/well of effector cells prepared as in Example 1)-5-2 (which was however suspended to 2×10^6 cells/mL) was added thereto, followed by centrifugation at room temperature at 1200 rpm for 5 minutes, and thereafter the cells were cultured overnight under conditions of 37° C. and 5% CO2. On the next day, 50 μl of the supernatant was recovered into a black plate (manufactured by Corning Inc). A solution of β-Glo assay system (manufactured by Promega Corp.) was added thereto at 50 μl/well. The luminescence intensity was measured using a plate reader (ENVISION; manufactured by PerkinElmer, Inc). The percentage of cells lysed by ADCC activity was calculated according to the following formula. Percentage of cells lysed (%)=(A−B)/(C−B)×100 • A: Count of each sample well • B: Average of spontaneous release (wells without antibody added) counts (n=3)
The in vitro ADCC activity of the humanized anti-human LAG-3 antibody hLA212_H4/L2 was evaluated by the method described in Example 7)-2.

[5] = Single dose administration, toxicity observation; assay type: in vivo
Experimental: Further, the hLA212 antibody_H4/L2 was administered to the human LAG-3/human FcγRIIIA double transgenic mice of Example 10 in a single dose, as a result of which, weight loss and other notable toxic events were not observed.

[6] = test system: T cell suppression function of LAG-3; assay: Influence on T cell suppression function of LAG-3: IL-2 production of SEB-stimulated human PBMCs; assay type: cell-based; details: SEB 1 ng/mL, 4 days, antibody 10 μg/mL

| Molecule | weight loss with EAE progression [1] | average of the EAE clinical scores as compared with the control antibody-administered group ([1]; during the observation period) [%] | number of granzyme positive CD8 T cells [2] | number of perforin positive CD8 T cells, compared with the control [3] | cross-reaction with LAG-3 of rodents (LAG-3 of rodents) | ADCC activity on 293T-lacZ cells not expressing human LAG-3 [4] | weight loss and other notable toxic events [5] | influence on IL-2 production in culture supernatant [6] |
| --- | --- | --- | --- | --- | --- | --- | --- | --- |
| B1 | suppressed | ≤ 50 | reduced | evidently reduced | does not cross-react | no ADCC activity | not observed |  |
| B2 |  |  |  |  |  |  |  | almost no influence on IL-2 production |
